Test results published in the supplement of paper PMC11417369.
The other results are listed elsewhere or left out.

test system: PfHDP1 homeodomain (GST-tagged); test: gcPBM binding intensity (ln(normalized median fluorescence intensity)); higher = stronger DNA binding
Outline: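 GST-tagged P. falciparum DNA-binding domains, expressed in E. coli (about 25 μg on average), were applied for 1 h to an Agilent 4 × 180k array of primer-extended double-stranded 36-bp intergenic genomic probes plus negative controls. The binding buffer was 1× PBS with 1% milk, 0.2 mg/ml BSA, 0.5% salmon testes DNA and 0.03% Triton X-100. Bound protein was detected with Alexa488 anti-GST antibody and scanned at 488 nm. Binding intensity is the highest Masliner-normalised natural-log median intensity across replicate spots of either probe orientation.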

Sequence | gcPBM binding intensity (ln)
ATATGATTTCACAAGACACACACATACAAATTTATA [CACACA_site9296] | 6.87
CACACGCACAGACACACACACACATATAAATATGTA [CACACA_site6300] | 7.87
TACAACATATTCAAATGTACAAATATAGGAATGAAA [XGTACX_site2730] | 6.82
AGCGTATTATACTGACGTACATTTTATGTAACTCCA [XGTACX_site2715] | 5.95
AACATAAAATGGATATGTACATAAAAATATATACTC [XGTACX_site7775] | 6.34
TTATATTTCTTGAAGGGTACATACCATTATTTTTAA [XGTACX_site1159] | 6.2
AGAAAACTCGCTTTTCTAAATCTCAAAAAAAAAAAA [XGTACX_negctrl_site94] | 6.07
ATACATATATTAGGATGTACGTTTATTTTAGTTATT [XGTACX_site7169] | 6
ATATATTTATATATTACACACAATATTGGAGACATA [CACACA_site931] | 6.85
AATTGGGAACTGTAATGTACATATATTGAAAGTATA [XGTACX_site7081] | 6.95
ACAAAAAAAAATATGTTAACTATATATATATATATA [CACACA_negctrl_site346] | 9.31
TATTTATTTGTACATATACACACTTAAATATGTTTA [CACACA_site3902] | 6.82
TAAACAAAAAGGAAGAGTACTTGTAAAATTTGTAAA [XGTACX_site3003] | 6.63
TAAAAAAATAAAATTACACACATATATAGATATATA [CACACA_site7273] | 6.03
CACTTTTTTTAAATGTGTACGTATATGAAAATATCA [XGTACX_site4854] | 6.38
ATATACATATCATGTAGTACAATTTTTTTACTTTTT [XGTACX_site7988] | 6.14
GAACCATTTTTTGGTATACACACGTAATTATAGAAT [CACACA_site1851] | 6.55
TACAAAAAATTATGGAGTACATATATAATATACAAT [XGTACX_site1004] | 6.41
TGAATACATAAATATAGTACATATATATATATATTA [XGTACX_site8756] | 6.3
AGATCATAATATTATACACACATTATGTATATGTAA [CACACA_site1490] | 6.77
TATAATATTATTTGAAGTACAAACATAAAAGAATTA [XGTACX_site3161] | 6.26
TAATTAACCTATGCATTCATATAGATACATAAATAT [CACACA_negctrl_site885] | 6.65
GTTTCTATTCACATTTTACACACGTCCATCGCATTT [CACACA_site9142] | 7.58
ACCAAATTATCAAATGGTACACATAAAATAATAAAA [XGTACX_site865] | 6.47
